Results reported in publication PMC5674072 (2017).

B1: 3x Flag Matrin 3 wild-type (human) [human] / Ddx39b (UAP56) of NSC-34 cells [mouse (endogenous in NSC-34)] (parent complex)
chain 1: MSKSFQQSSLSRDSQGHGRDLSAAGIGLLAAATQSLSMPASLGRMNQGTARLASLMNLGMSSSLNQQGAHSALSSASTSSHNLQSIFNIGSRGPLPLSSQHRGDADQASNILASFGLSARDLDELSRYPEDKITPENLPQILLQLKRRRTEEGPTLSYGRDGRSATREPPYRVPRDDWEEKRHFRRDSFDDRGPSLNPVLDYDHGSRSQESGYYDRMDYEDDRLRDGERCRDDSFFGETSHNYHKFDSEYERMGRGPGPLQERSLFEKKRGAPPSSNIEDFHGLLPKGYPHLCSICDLPVHSNKEWSQHINGASHSRRCQLLLEIYPEWNPDNDTGHTMGDPFMLQQSTNPAPGILGPPPPSFHLGGPAVGPRGNLGAGNGNLQGPRHMQKGRVETSRVVHIMDFQRGKNLRYQLLQLVEPFGVISNHLILNKINEAFIEMATTEDAQAAVDYYTTTPALVFGKPVRVHLSQKYKRIKKPEGKPDQKFDQKQELGRVIHLSNLPHSGYSDSAVLKLAEPYGKIKNYILMRMKSQAFIEMETREDAMAMVDHCLKKALWFQGRCVKVDLSEKYKKLVLRIPNRGIDLLKKDKSRKRSYSPDGKESPSDKKSKTDGSQKTESSTEGKEQEEKSGEDGEKDTKDDQTEQEPNMLLESEDELLVDEEEAAALLESGSSVGDETDLANLGDVASDGKKEPSDKAVKKDGSASAAAKKKLKKVDKIEELDQENEAALENGIKNEENTEPGAESSENADDPNKDTSENADGQSDENKDDYTIPDEYRIGPYQPNVPVGIDYVIPKTGFYCKLCSLFYTNEEVAKNTHCSSLPHYQKLKKFLNKLAEERRQKKET
chain 2: not shown

Variants of: B1
Experiment: co-immunoprecipitation (Ddx39b IP) followed by western blot, quantified; NSC-34 stable cell lines; four replicates; WT vs 622 p = 0.9993; read off a plot

ratio to parent | Variant
~0.9 | chain 1 T622A

Variants of: B1
Experiment: co-immunoprecipitation (Ddx39b IP) followed by western blot, quantified; NSC-34 stable cell lines; four replicates; WT vs 85: p = 0.0133; read off a plot

ratio to parent | Variant
~3.6 | chain 1 S85C

Variants of: B1
Experiment: co-immunoprecipitation (Ddx39b IP) followed by western blot, quantified; NSC-34 stable cell lines; four replicates; WT vs 115: p = 0.9944; read off a plot

ratio to parent | Variant
~0.8 | chain 1 F115C

Variants of: B1
Experiment: co-immunoprecipitation (Ddx39b IP) followed by western blot, quantified; NSC-34 stable cell lines; four replicates; WT vs 154 p = 0.0760; read off a plot

ratio to parent | Variant
~3 | chain 1 P154S
